# Paper PMC7819943, “Rice protein-binding microarrays: a tool to detect cis-acting elements near promoter regions in rice”
# Some of the results follow.
# Target: T1, OsWOX13 (Oryza sativa, UniProt Q5QMM3 1-267)
# T1 sequence: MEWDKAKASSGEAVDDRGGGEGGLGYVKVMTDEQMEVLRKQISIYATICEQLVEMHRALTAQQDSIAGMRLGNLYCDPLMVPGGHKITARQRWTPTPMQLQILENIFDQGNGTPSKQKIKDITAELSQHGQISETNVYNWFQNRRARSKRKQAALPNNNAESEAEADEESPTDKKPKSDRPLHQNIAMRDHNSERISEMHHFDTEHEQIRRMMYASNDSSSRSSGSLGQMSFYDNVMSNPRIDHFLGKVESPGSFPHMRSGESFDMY
# Experiment: protein-binding microarray (RPBM); PBS, 2% BSA, 51.3 ng/ul salmon testes DNA, 50 uM zinc acetate, 200 nM TF, 25 C, 1 h; high values mean tight binding
# Details: protein: recombinant; tags: N-terminal polyhistidine and DsRed monomer fusion (pET32a); label: CyDye5-dUTP incorporated in the synthesized complementary strand; 3' TTTTT single-stranded linker to array surface; dsDNA, one strand shown
# Procedure, shortened: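 Binding signal is reported as fluorescence intensity per feature (arbitrary units) from an Axon 4000B scanner. Incubation used 200 nM of each Ni–NTA-purified, N-terminally polyhistidine- and DsRed-fused transcription factor from E. coli BL21-CodonPlus on a double-stranded custom Agilent array for 1 h at 25 °C, with 50 µM zinc acetate in the buffer, followed by washing.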
row,Sequence,binding signal
1,AAATTATATTAATTTCCACTGTGTAGCGCATCCTTATCGACGGAGTCACCTAGTGCAG,4130 fluorescence intensity (a.u.)
2,GGCTGGTGGAATTAATTATAGTATAATAAGGAAAAGCAGACGGAGTCACCTAGTGCAG,5510 fluorescence intensity (a.u.)
3,TACTTGATGAAACATTCAAATAATATGATGTGCAACATTCCGGAGTCACCTAGTGCAG,5150 fluorescence intensity (a.u.)
4,TCCACCGCGACATGTGATTGGAGGTAAGAGCATGTGAACCCGGAGTCACCTAGTGCAG,5650 fluorescence intensity (a.u.)
5,TTTTAATTACTTATTTAATCATATGCTAATAGCTCGTCCTCGGAGTCACCTAGTGCAG,39300 fluorescence intensity (a.u.)
6,AACAAATTGGAGTAATCAATGGGCTATACTATTAAACTTGCGGAGTCACCTAGTGCAG,15400 fluorescence intensity (a.u.)
7,CATATAGATTACCAAATAAATTCTCTAACAAGAATAGGTGCGGAGTCACCTAGTGCAG,13700 fluorescence intensity (a.u.)
8,ATATAATATAATTATATCAATGCACAGCATATAGCTTATCCGGAGTCACCTAGTGCAG,11500 fluorescence intensity (a.u.)
9,TTAACTTTACACATTTTAATTGTTGGAGGCTTTCACACGGCGGAGTCACCTAGTGCAG,3320 fluorescence intensity (a.u.)
10,GTAAAGGCGAGGGAAATTGATAGGGAGTTTAGTTGGAGATCGGAGTCACCTAGTGCAG,3150 fluorescence intensity (a.u.)
11,TAGCTTAGCTCGTATTCGTATAAAACGTAGTACAAGGTTCCGGAGTCACCTAGTGCAG,61300 fluorescence intensity (a.u.)
12,ATTTGATTAAATCTCTTAAATTAAGAAACGGCCCAAAATTCGGAGTCACCTAGTGCAG,18200 fluorescence intensity (a.u.)
13,GGATGATTTTGTAACTTGATGACAAGTTGAGGGACCTTCGCGGAGTCACCTAGTGCAG,33100 fluorescence intensity (a.u.)
14,CACGATGATTGTTTGTATATGGAAACACCAAAATGGTCTACGGAGTCACCTAGTGCAG,54700 fluorescence intensity (a.u.)
15,TAATAATTTGGGGAGCTTAATTGCTATCCAGTGATATATACGGAGTCACCTAGTGCAG,11100 fluorescence intensity (a.u.)
16,GCTAATTTTGGCCAAGTATCTTTATTTTGTTACAAAAGTTCGGAGTCACCTAGTGCAG,3770 fluorescence intensity (a.u.)
17,ACACTGGATTGACCAAGTTCCTATGCATCTTCAAAGTTGCCGGAGTCACCTAGTGCAG,12500 fluorescence intensity (a.u.)
18,GAACAATTAACACTCATACCCATCATAGCATCAGACTCAACGGAGTCACCTAGTGCAG,3480 fluorescence intensity (a.u.)
19,CTATAACAATCATTCATCATTGTTTGCGTTTATCCCTTCTCGGAGTCACCTAGTGCAG,5050 fluorescence intensity (a.u.)
20,CTCTTGATGTATGGATTGAATACAAACTTGACATCCGATACGGAGTCACCTAGTGCAG,10600 fluorescence intensity (a.u.)
21,GGTGCTAAATTGGTTGCAGTTTGGACTAATGGTTCTATATCGGAGTCACCTAGTGCAG,10800 fluorescence intensity (a.u.)

row,Sequence,binding signal
1,CTCTATTGACTGATGGACTGCCCACTCCTAGCTGGCTAGCCGGAGTCACCTAGTGCAG,21600 fluorescence intensity (a.u.)
2,ACTTGTATATTTGTGGATTGATACATTACATATTGATCTACGGAGTCACCTAGTGCAG,5160 fluorescence intensity (a.u.)
3,CCAAATTGCCATTGGCTATAGGCCATCCCCTTTGTTTGGCCGGAGTCACCTAGTGCAG,29600 fluorescence intensity (a.u.)
4,TACATTAACCTTTAATTGCCTTATGCTGTTAATCATATAGCGGAGTCACCTAGTGCAG,9700 fluorescence intensity (a.u.)
5,CCCTCCATCCCCTCAGTCCACTCAATCACCACACCAGCCACGGAGTCACCTAGTGCAG,3850 fluorescence intensity (a.u.)
6,TCAGATTTTATGATAGATTTTGAAGGGCGTAAATAAATAGCGGAGTCACCTAGTGCAG,5630 fluorescence intensity (a.u.)
7,TCTAAACTGGTTTATTATCACCCGTCACGGATAACTATTACGGAGTCACCTAGTGCAG,3260 fluorescence intensity (a.u.)
8,TTCTTGCCGGAGGAGGGGCAGGGGAGGGAGCCGGGCGGGACGGAGTCACCTAGTGCAG,4360 fluorescence intensity (a.u.)
9,CTGGGTTGATTGTTATTTGTAACCGCTGATCTGGCTTGTGCGGAGTCACCTAGTGCAG,47300 fluorescence intensity (a.u.)
10,TTAACTGTAACACATCCTGATTTGTTCTTTACATAGCATGCGGAGTCACCTAGTGCAG,13800 fluorescence intensity (a.u.)
11,CACACAACTCATGTCTATCAATCATTGCATCCCAACTTGCCGGAGTCACCTAGTGCAG,13300 fluorescence intensity (a.u.)
12,GGTTATAGATGATTTGGAGTTAGTAGTCGACTATGCTATTCGGAGTCACCTAGTGCAG,7060 fluorescence intensity (a.u.)
13,TAAATTGGAACCATGCCATTATAATTTTGTAAAGTTTGAGCGGAGTCACCTAGTGCAG,7570 fluorescence intensity (a.u.)
14,CAAATTCTTGATTTCGTGTTAAATCTGGACAACTAGACTACGGAGTCACCTAGTGCAG,4850 fluorescence intensity (a.u.)
15,AAGATTAATTTCTTGATGCTTTGCAGTAACTGGGAACCCCCGGAGTCACCTAGTGCAG,45500 fluorescence intensity (a.u.)
16,TGAAATTGGAGCCCAAAACATACTAACCCAAATCTGGCCCCGGAGTCACCTAGTGCAG,5200 fluorescence intensity (a.u.)
17,GGTGGGTTGGGCCGTGATTTGTATGGACTTTATTTGTAAGCGGAGTCACCTAGTGCAG,5260 fluorescence intensity (a.u.)
18,ATAGCCAATCTAATAGCCAATTCATACAATAATTGCTTACCGGAGTCACCTAGTGCAG,14500 fluorescence intensity (a.u.)
19,AGTAGACTTGATTGCAATAGTGTAACCGGATCGGAGTGACCGGAGTCACCTAGTGCAG,26400 fluorescence intensity (a.u.)
20,CTTCTAATTTTAGCGTGAACAAAACCCACCATAACCGTACCGGAGTCACCTAGTGCAG,4730 fluorescence intensity (a.u.)
21,AACAATTTAATTTATCAATTACAAAAGCTAAATTAGTAATCGGAGTCACCTAGTGCAG,24000 fluorescence intensity (a.u.)

row,Sequence,binding signal
1,ACAAATTAATTTTAAGCAACAAATATATCTGTCGGTAGTACGGAGTCACCTAGTGCAG,32200 fluorescence intensity (a.u.)
2,AACTATAATTGACAATATTTTCATTTGAGATAGTTTAAGGCGGAGTCACCTAGTGCAG,40300 fluorescence intensity (a.u.)
3,TTCTAATTTTCGGGATGTTTGATGTAAAATATGAGGACTACGGAGTCACCTAGTGCAG,5160 fluorescence intensity (a.u.)
4,TCTGATTGACTTCTTCCAATTACTCACTCCTGCACGTCGGCGGAGTCACCTAGTGCAG,48400 fluorescence intensity (a.u.)
5,AGTAATTTCACGAAATTGGAGCCGATTCCTGGCAGAATATCGGAGTCACCTAGTGCAG,14200 fluorescence intensity (a.u.)
6,CGGAGAATTAGAGTTGACTGGTCTAGAAAATGTAACGGAACGGAGTCACCTAGTGCAG,5680 fluorescence intensity (a.u.)
7,GCCGATTGCAATTTCGTCATCACTGCGGTTAGGATTACACCGGAGTCACCTAGTGCAG,21900 fluorescence intensity (a.u.)
8,GACCATGATTTGGTGTCTGATGGATGTGCAGGTGTTCCACCGGAGTCACCTAGTGCAG,33100 fluorescence intensity (a.u.)
9,AAGTTATAATTTGAAGTTAGAGGATGGGATAGAAGTAAGACGGAGTCACCTAGTGCAG,3780 fluorescence intensity (a.u.)
10,GTGAGATAAATTAATGGTCAAGTTTGTGTCCAGAGTTGATCGGAGTCACCTAGTGCAG,5470 fluorescence intensity (a.u.)
11,GTCTAATAACAAAACAAATTACAGAATCCACCTATAAACCCGGAGTCACCTAGTGCAG,5610 fluorescence intensity (a.u.)
12,TCCTAATCATAGCTTAAATCAGCGAGATTAGTCTTATTGTCGGAGTCACCTAGTGCAG,19200 fluorescence intensity (a.u.)
13,ATTAATTAAGTAGAGTCAATTCTCAATTCTTTACAGCAGTCGGAGTCACCTAGTGCAG,20700 fluorescence intensity (a.u.)
14,ATAATTAAAAGCTTAATCACGTTTAGTTTTCACAGGCGCGCGGAGTCACCTAGTGCAG,10400 fluorescence intensity (a.u.)
15,CTGATTGATTTAGCGGCTCAACATATATACCAAGGCGGCGCGGAGTCACCTAGTGCAG,61100 fluorescence intensity (a.u.)
16,GCAATTAATGACCTATAGATAGTAGCATTCAATTTCCACTCGGAGTCACCTAGTGCAG,7190 fluorescence intensity (a.u.)
17,CCAATTGATTTGGATAACCAAACTCGTTACTCACTTCAACCGGAGTCACCTAGTGCAG,37800 fluorescence intensity (a.u.)
18,CCGAAATTTTAGAATTAAATGATGAAACAAAATGTTATTACGGAGTCACCTAGTGCAG,13500 fluorescence intensity (a.u.)
19,CAAACAATCAGATGCGAATTACAGCTTGGAAAGAGTACAGCGGAGTCACCTAGTGCAG,3800 fluorescence intensity (a.u.)
20,AGTGATTAATTCATTCCAAAAGACAGTAGCGACATCTATTCGGAGTCACCTAGTGCAG,20300 fluorescence intensity (a.u.)
21,AATGGAAATATCTGATGATTTACGTCAGCGAAATTGTTGTCGGAGTCACCTAGTGCAG,3520 fluorescence intensity (a.u.)

row,Sequence,binding signal
1,ATTATAAAATTTGTCATTGATGATAAGCACAAGGTCAATTCGGAGTCACCTAGTGCAG,4540 fluorescence intensity (a.u.)
2,CTATATAGAAATTGATGGTTAAATATTAAAATGTTTGATTCGGAGTCACCTAGTGCAG,8060 fluorescence intensity (a.u.)
3,AGTGACGCCCTCTTGATTAGCGAATTCGGCGGAGCTTTTCCGGAGTCACCTAGTGCAG,10700 fluorescence intensity (a.u.)
4,AATAATTTTGTGTTCGCTATTGGAGGGTACACTAAGTTGACGGAGTCACCTAGTGCAG,9680 fluorescence intensity (a.u.)
5,TTTCAATCACCTCCGCTTCCTCCGCCGCCTCGGCGCGAAGCGGAGTCACCTAGTGCAG,5430 fluorescence intensity (a.u.)
6,CTCCAATTCATCTATAATCAATCTAATAGCCAATTCATACCGGAGTCACCTAGTGCAG,5900 fluorescence intensity (a.u.)
7,CTTCTACCTAATTTATATAATCTGCTAGTACTATACTTACCGGAGTCACCTAGTGCAG,6770 fluorescence intensity (a.u.)
8,TGTGATTTATTTCTAAAATAATTTCTTGGCACGGTTCTTTCGGAGTCACCTAGTGCAG,30000 fluorescence intensity (a.u.)
9,ATATATAATCAATCCTGGCCAAAACAATCGGATTAATCTGCGGAGTCACCTAGTGCAG,6420 fluorescence intensity (a.u.)
10,TGGGTTGAACTTTGGGTTAATTGAAGTGTATAGCTTAATTCGGAGTCACCTAGTGCAG,4440 fluorescence intensity (a.u.)
11,TTCTGTCAATTAGGTGGGTGACATGTGGATCCCACGATATCGGAGTCACCTAGTGCAG,13200 fluorescence intensity (a.u.)
12,GAACAAATTGAAGAAGTAGAGATGCTGTTATTAAATATCGCGGAGTCACCTAGTGCAG,31300 fluorescence intensity (a.u.)
13,TGTATAATATGTTAATTGGACTTTTCACTATAGTTATGATCGGAGTCACCTAGTGCAG,14000 fluorescence intensity (a.u.)
14,GTCAAGTAACTGAACATTTTAATTGCTGCCGATTATTACCCGGAGTCACCTAGTGCAG,13400 fluorescence intensity (a.u.)
15,CATCATGCATAATTATGGCCTAATAAATCAAGCAGAAAACCGGAGTCACCTAGTGCAG,9570 fluorescence intensity (a.u.)
16,CATGATTAGCCTATGTGATACTACAATAAACATTCTCTAACGGAGTCACCTAGTGCAG,20800 fluorescence intensity (a.u.)
17,CCCTGGTATGCAAATCAATTAAAATTCTTTGGCCACTGTACGGAGTCACCTAGTGCAG,5500 fluorescence intensity (a.u.)
18,ACCACTATTGATTGAATTAGTGTTCATTGGTGAAGTTGTTCGGAGTCACCTAGTGCAG,46700 fluorescence intensity (a.u.)
19,GTAATGACTAATTAACAGTGGACCAAATTAAACCGTGTTCCGGAGTCACCTAGTGCAG,29900 fluorescence intensity (a.u.)
20,TTCTTTTCATCAATTTAGCTTCAACCCTCTGCAAACCCTGCGGAGTCACCTAGTGCAG,3960 fluorescence intensity (a.u.)
21,ATTAATCTATAATTAGAGGCGCCTGTGGTGACTTCGTCAACGGAGTCACCTAGTGCAG,3720 fluorescence intensity (a.u.)
